The other results are listed elsewhere or left out. Rule as the data show it: active = 3.2 or more and inactive = the rest. The signal is at background level for most entries.
How the values were obtained:
Test in all cases: enrichment score (SH2-bound / input frequency) (ratio); bacterial display of known human phosphotyrosine sites (pTyr-Var adds point mutants) read by sequencing; higher = stronger binding; tyrosines were phosphorylated by kinases first
Conditions in all cases: peptide library: pTyr-Var
SHP2 C-SH2 domain E139D = biological target: SHP2 C-SH2 domain E139D
[1] = biological target: SHP2 C-SH2 domain wild-type
SHP2 N-SH2 domain L43F = biological target: SHP2 N-SH2 domain L43F
SHP2 N-SH2 domain T42A = biological target: SHP2 N-SH2 domain T42A
SHP2 N-SH2 domain T52S = biological target: SHP2 N-SH2 domain T52S
[2] = biological target: SHP2 N-SH2 domain wild-type

Measured: enrichment score
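Also: displayed peptides selected on beads carrying the immobilized SH2 domain, with library peptides lacking any tyrosine serving as negative controls.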

QFLMKYVWSAS [ABCD1_Y337]
inactive: SHP2 C-SH2 domain E139D 1.62 | [1] 1.76 | SHP2 N-SH2 domain L43F 1.43 | SHP2 N-SH2 domain T42A 1.35 | SHP2 N-SH2 domain T52S 1.56 | [2] 1.97

QFLMMYVWSAS [ABCD1_Y337_K336M]
inactive: SHP2 C-SH2 domain E139D 1.99 | [1] 2.27 | SHP2 N-SH2 domain L43F 1.67 | SHP2 N-SH2 domain T42A 1.79 | SHP2 N-SH2 domain T52S 2.09 | [2] 2.09

QFLMKYVWSAP [ABCD1_Y337_S342P]
inactive: SHP2 C-SH2 domain E139D 0.957 | [1] 0.847 | SHP2 N-SH2 domain L43F 0.751 | SHP2 N-SH2 domain T42A 0.806 | SHP2 N-SH2 domain T52S 1.11 | [2] 1.3

QFLMKYVRSAS [ABCD1_Y337_W339R]
inactive: SHP2 C-SH2 domain E139D 0.862 | [1] 0.578 | SHP2 N-SH2 domain L43F 0.703 | SHP2 N-SH2 domain T42A 0.588 | SHP2 N-SH2 domain T52S 0.648 | [2] 0.641

RVGNMYVRGLS [ABCG8_Y209]
inactive: SHP2 C-SH2 domain E139D 0.675 | [1] 0.8 | SHP2 N-SH2 domain L43F 0.521 | SHP2 N-SH2 domain T42A 0.666 | SHP2 N-SH2 domain T52S 0.663 | [2] 0.755

LGRKLYSIAAP [ABHD12_Y345]
inactive: SHP2 C-SH2 domain E139D 0.514 | [1] 0.491 | SHP2 N-SH2 domain L43F 0.535 | SHP2 N-SH2 domain T42A 0.339 | SHP2 N-SH2 domain T52S 0.482 | [2] 0.611

TSSGGYRRTPS [ABI1_Y333]
inactive: SHP2 C-SH2 domain E139D 0.245 | [1] 0.24 | SHP2 N-SH2 domain L43F 0.197 | SHP2 N-SH2 domain T42A 0.247 | SHP2 N-SH2 domain T52S 0.28 | [2] 0.252

TSSAGYRRTPS [ABI1_Y333_G331A]
inactive: SHP2 C-SH2 domain E139D 0.267 | [1] 0.127 | SHP2 N-SH2 domain L43F 0.361 | SHP2 N-SH2 domain T42A 0.16 | SHP2 N-SH2 domain T52S 0.272 | [2] 0.181

SISLRYEGRVY [ABL1_Y167]
inactive: SHP2 C-SH2 domain E139D 1.4 | [1] 1.12 | SHP2 N-SH2 domain L43F 1.38 | SHP2 N-SH2 domain T42A 1.39 | SHP2 N-SH2 domain T52S 1.21 | [2] 1.32

SISLKYEGRVF [ABL1_Y167_R166K_YF]
inactive: SHP2 C-SH2 domain E139D 1.27 | [1] 1.29 | SHP2 N-SH2 domain L43F 1.17 | SHP2 N-SH2 domain T42A 1.29 | SHP2 N-SH2 domain T52S 1.13 | [2] 1.28

SISLRYEGRVF [ABL1_Y167_YF]
inactive: SHP2 C-SH2 domain E139D 1.6 | [1] 1.55 | SHP2 N-SH2 domain L43F 1.41 | SHP2 N-SH2 domain T42A 1.41 | SHP2 N-SH2 domain T52S 1.72 | [2] 1.43

NKPTVYGVSPN [ABL1_Y226]
inactive: SHP2 C-SH2 domain E139D 0.689 | [1] 0.74 | SHP2 N-SH2 domain L43F 0.787 | SHP2 N-SH2 domain T42A 0.676 | SHP2 N-SH2 domain T52S 0.691 | [2] 0.705

TSAEGYQDVRD [ABLIM1_Y439_P434T]
inactive: SHP2 C-SH2 domain E139D 0.381 | [1] 0.296 | SHP2 N-SH2 domain L43F 0.57 | SHP2 N-SH2 domain T42A 0.449 | SHP2 N-SH2 domain T52S 0.415 | [2] 0.566

EMTAEYACTRK [ACAD9_Y325]
inactive: SHP2 C-SH2 domain E139D 0.571 | [1] 0.499 | SHP2 N-SH2 domain L43F 0.568 | SHP2 N-SH2 domain T42A 0.719 | SHP2 N-SH2 domain T52S 1.32 | [2] 0.65

GRRNTCYASIA [ACADM_Y352_Y352C]
inactive: SHP2 C-SH2 domain E139D 0.347 | [1] 0.774 | SHP2 N-SH2 domain L43F 0.383 | SHP2 N-SH2 domain T42A 0.471 | SHP2 N-SH2 domain T52S 0.433 | [2] 0.362

GRRNTCFASIA [ACADM_Y352_Y352C_YF]
inactive: SHP2 C-SH2 domain E139D 0.443 | [1] 0.345 | SHP2 N-SH2 domain L43F 0.369 | SHP2 N-SH2 domain T42A 0.462 | SHP2 N-SH2 domain T52S 0.432 | [2] 0.394

RRNTCYASIAK [ACADM_Y353_Y352C]
inactive: SHP2 C-SH2 domain E139D 0.346 | [1] 0.796 | SHP2 N-SH2 domain L43F 0.464 | SHP2 N-SH2 domain T42A 0.441 | SHP2 N-SH2 domain T52S 0.346 | [2] 0.474

DKTGEYPVPLI [ACADM_Y73]
inactive: SHP2 C-SH2 domain E139D 0.774 | [1] 0.658 | SHP2 N-SH2 domain L43F 0.722 | SHP2 N-SH2 domain T42A 0.54 | SHP2 N-SH2 domain T52S 0.688 | [2] 0.776

ASMAKYYASEI [ACADSB_Y372]
inactive: SHP2 C-SH2 domain E139D 0.813 | [1] 0.659 | SHP2 N-SH2 domain L43F 0.538 | SHP2 N-SH2 domain T42A 0.49 | SHP2 N-SH2 domain T52S 0.655 | [2] 0.741

— the supplement of paper PMC10369915
